{"source": "PubChem BioAssay AID485344", "about": "(National Center for Advancing Translational Sciences (NCATS), 2010)", "note": "The campaign covered roughly 340,000 compounds. About 6,900 (2%) were called active. Cut-off read from the data, not from the text of the source: active = inhibition above about 30%; inactive = below that, where a call was filed. The entries are a selection whose mix differs from that of the whole data set. Where no call is shown, the source filed none."}
{"target": "D(2) dopamine receptor (Homo sapiens) (UniProt P14416)", "sequence (P14416 whole entry, looked up)": "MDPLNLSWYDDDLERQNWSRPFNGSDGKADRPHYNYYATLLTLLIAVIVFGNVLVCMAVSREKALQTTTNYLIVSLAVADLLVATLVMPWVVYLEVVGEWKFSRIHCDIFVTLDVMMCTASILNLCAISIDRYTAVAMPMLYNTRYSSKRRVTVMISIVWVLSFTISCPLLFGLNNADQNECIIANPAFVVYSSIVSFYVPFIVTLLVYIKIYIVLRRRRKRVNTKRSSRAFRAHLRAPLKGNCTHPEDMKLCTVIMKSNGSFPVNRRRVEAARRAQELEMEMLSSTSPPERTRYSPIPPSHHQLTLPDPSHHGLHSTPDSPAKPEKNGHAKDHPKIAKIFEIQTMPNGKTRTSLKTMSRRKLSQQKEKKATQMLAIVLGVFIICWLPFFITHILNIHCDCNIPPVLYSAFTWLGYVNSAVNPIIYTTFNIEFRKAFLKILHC", "assay": "HTS Assay for Allosteric Antagonists of the Human D2 Dopamine Receptor: Primary Screen for Antagonists; note: 0% is about no effect", "conditions": "HEK293 TREx D2 cells, calcium flux, dopamine EC80; at 10 µM; stronger effect = higher value", "procedure,_shortened": "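Inhibition of EC80 dopamine-driven calcium flux, recorded kinetically, defines activity here; cells are a tetracycline-induced HEK293 T-REx line expressing force-coupled D2.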"}
{"smiles": "Cc1ccc2onc(CNC(=O)NCc3ccccc3)c2c1", "inhibition": "-2.85%"}
{"smiles": "CCC(C(=O)Nc1ccccc1OC)n1c(C(=O)OC)cc2sc(Cl)cc21", "note": "(configuration not stated)", "inhibition": "1.71%"}
{"smiles": "CCc1nc(SCC(=O)Nc2cc(C)ccc2OC)c2c(C)c(C)sc2n1", "inhibition": "active: 43.8%"}
{"smiles": "O=C(COc1ccccc1)Nc1nnc(SCc2cc(=O)n3cc(Cl)ccc3n2)s1", "inhibition": "-5.76%"}
{"smiles": "COc1ccc(CCNC(=O)CCS(=O)(=O)c2cc3c(cc2Cl)NC(=O)CO3)cc1OC", "inhibition": "-14.5%"}
{"smiles": "CCc1nnc(SCC(=O)Nc2cccc(C(F)(F)F)c2)c2cc3oc(C)cc3n12", "inhibition": "-16%"}
{"smiles": "CCOC(=O)Cc1c(C)nc2c(-c3ccc(Cl)cc3)c(C(F)(F)F)nn2c1C", "inhibition": "-13%"}
{"smiles": "CCCc1nn2cc(-c3ccc(C)c(C)c3)nc2s1", "inhibition": "12.4%"}
{"smiles": "COc1ccc(/C=C/C(=O)Nc2ccc3nc4c(c(Nc5ccc(OC)c(OC)c5)c3c2)CCCC4)cc1", "inhibition": "-5.41%"}
{"smiles": "COc1ccc(-c2noc(CSc3nnc(Cc4ccccc4)n3-c3cccc(C)c3)n2)cc1", "inhibition": "-3.69%"}
{"smiles": "O=c1[nH]c2ccc(NCc3ccc(-c4ccc(F)cc4)o3)cc2[nH]1", "inhibition": "2.36%"}
{"smiles": "c1ccc2c(c1)ncc1nncn12", "inhibition": "6.57%"}
{"smiles": "Cc1ccc(CN(C(=O)COc2ccc([N+](=O)[O-])cc2)c2ccccn2)o1", "inhibition": "5.71%"}
{"smiles": "CCC1CCCCN1S(=O)(=O)c1cc2c(cc1C)NC(=O)CO2", "note": "(configuration not stated)", "inhibition": "14.7%"}
{"smiles": "CC(=O)c1ccc(NC(=O)CSc2ccc3nnc(CCNS(=O)(=O)c4ccc(C)cc4)n3n2)cc1", "inhibition": "-0.899%"}
{"smiles": "Cc1ccc(Nc2ncc(C(=O)Nc3ccc(F)cc3F)c3ccccc23)cc1Cl", "inhibition": "1.93%"}
{"smiles": "CC(=O)c1cccc(NC(=O)C2CCN(S(=O)(=O)c3ccccc3)CC2)c1", "inhibition": "-14.9%"}
{"smiles": "COc1ccc(CNC(=O)c2nn(C)c3c2CS(=O)(=O)c2ccccc2-3)cc1", "inhibition": "8.01%"}
{"smiles": "N#C/C(=C\\c1ccc(N2CCOCC2)o1)C(=O)NCCc1ccccc1", "inhibition": "active: 45.6%"}
{"smiles": "O=C(NCCc1ccccc1)c1cnc2sc(N3CCCCC3)nn2c1=O", "inhibition": "1.65%"}
{"smiles": "CCC1Oc2ccccc2N(CC(=O)NCCc2ccc(OC)c(OC)c2)C1=O", "note": "(configuration not stated)", "inhibition": "24%"}
{"smiles": "COc1cc(OC)c(NC(=O)N2CCc3cc(S(=O)(=O)N4CCC(C)CC4)ccc32)cc1Cl", "inhibition": "3.43%"}
{"smiles": "O=c1oc2ccc3ccccc3c2cc1-c1nnc(Nc2cccc(C(F)(F)F)c2)s1", "inhibition": "3.05%"}
{"smiles": "COc1ccc(CCNS(=O)(=O)c2ccc(N3CCCCS3(=O)=O)cc2)cc1", "inhibition": "-15.3%"}
{"smiles": "O=C(c1cc2c(s1)-c1ccccc1OC2)N1CCN(c2ccc(F)cc2)CC1", "inhibition": "-1.9%"}
{"smiles": "O=c1[nH]c(Nc2ccc3c(c2)OCCO3)nnc1Cc1ccc(Cl)cc1", "inhibition": "active: 33.4%"}
{"smiles": "COc1ccc(OC)c(CCNC(=O)Cn2nc(C)n3c(cc4sccc43)c2=O)c1", "inhibition": "-9.91%"}
